The results in this text go back to publication PMC8321701.

Chains of the proteins cited; added tags and fusions are not shown. Lines headed by an entry give the natural chain unless they say otherwise; changes in a name come on top.
UniProt P62745: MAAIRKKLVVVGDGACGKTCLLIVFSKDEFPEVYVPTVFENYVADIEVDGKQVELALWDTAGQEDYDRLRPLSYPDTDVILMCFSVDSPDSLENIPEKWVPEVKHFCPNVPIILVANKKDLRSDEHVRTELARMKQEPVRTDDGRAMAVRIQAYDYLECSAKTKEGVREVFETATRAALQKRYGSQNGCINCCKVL
UniProt Q9BST9: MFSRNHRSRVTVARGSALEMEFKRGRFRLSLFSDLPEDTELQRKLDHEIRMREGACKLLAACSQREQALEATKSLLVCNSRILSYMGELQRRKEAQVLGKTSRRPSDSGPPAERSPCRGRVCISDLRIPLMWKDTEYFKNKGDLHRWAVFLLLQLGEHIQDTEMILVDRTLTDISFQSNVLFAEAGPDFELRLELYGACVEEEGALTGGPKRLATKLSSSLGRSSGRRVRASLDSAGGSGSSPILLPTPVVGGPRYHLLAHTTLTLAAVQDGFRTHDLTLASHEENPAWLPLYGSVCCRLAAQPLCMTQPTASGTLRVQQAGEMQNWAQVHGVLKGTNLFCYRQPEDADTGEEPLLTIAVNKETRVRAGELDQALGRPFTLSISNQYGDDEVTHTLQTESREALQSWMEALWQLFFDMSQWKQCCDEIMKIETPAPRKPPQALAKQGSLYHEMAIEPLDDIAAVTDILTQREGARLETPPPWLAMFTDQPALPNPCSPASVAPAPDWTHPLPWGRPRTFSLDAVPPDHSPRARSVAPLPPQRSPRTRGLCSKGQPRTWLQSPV
UniProt Q12972: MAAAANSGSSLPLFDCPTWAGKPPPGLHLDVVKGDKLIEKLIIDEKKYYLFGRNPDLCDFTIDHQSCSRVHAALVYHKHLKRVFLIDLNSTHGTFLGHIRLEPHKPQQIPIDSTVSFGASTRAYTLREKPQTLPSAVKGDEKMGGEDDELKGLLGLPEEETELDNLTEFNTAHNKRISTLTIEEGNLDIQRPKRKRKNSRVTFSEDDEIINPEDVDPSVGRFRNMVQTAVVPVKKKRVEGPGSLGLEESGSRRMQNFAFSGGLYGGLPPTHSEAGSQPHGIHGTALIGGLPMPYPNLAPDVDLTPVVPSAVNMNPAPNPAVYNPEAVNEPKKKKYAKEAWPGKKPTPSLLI
UniProt Q13136: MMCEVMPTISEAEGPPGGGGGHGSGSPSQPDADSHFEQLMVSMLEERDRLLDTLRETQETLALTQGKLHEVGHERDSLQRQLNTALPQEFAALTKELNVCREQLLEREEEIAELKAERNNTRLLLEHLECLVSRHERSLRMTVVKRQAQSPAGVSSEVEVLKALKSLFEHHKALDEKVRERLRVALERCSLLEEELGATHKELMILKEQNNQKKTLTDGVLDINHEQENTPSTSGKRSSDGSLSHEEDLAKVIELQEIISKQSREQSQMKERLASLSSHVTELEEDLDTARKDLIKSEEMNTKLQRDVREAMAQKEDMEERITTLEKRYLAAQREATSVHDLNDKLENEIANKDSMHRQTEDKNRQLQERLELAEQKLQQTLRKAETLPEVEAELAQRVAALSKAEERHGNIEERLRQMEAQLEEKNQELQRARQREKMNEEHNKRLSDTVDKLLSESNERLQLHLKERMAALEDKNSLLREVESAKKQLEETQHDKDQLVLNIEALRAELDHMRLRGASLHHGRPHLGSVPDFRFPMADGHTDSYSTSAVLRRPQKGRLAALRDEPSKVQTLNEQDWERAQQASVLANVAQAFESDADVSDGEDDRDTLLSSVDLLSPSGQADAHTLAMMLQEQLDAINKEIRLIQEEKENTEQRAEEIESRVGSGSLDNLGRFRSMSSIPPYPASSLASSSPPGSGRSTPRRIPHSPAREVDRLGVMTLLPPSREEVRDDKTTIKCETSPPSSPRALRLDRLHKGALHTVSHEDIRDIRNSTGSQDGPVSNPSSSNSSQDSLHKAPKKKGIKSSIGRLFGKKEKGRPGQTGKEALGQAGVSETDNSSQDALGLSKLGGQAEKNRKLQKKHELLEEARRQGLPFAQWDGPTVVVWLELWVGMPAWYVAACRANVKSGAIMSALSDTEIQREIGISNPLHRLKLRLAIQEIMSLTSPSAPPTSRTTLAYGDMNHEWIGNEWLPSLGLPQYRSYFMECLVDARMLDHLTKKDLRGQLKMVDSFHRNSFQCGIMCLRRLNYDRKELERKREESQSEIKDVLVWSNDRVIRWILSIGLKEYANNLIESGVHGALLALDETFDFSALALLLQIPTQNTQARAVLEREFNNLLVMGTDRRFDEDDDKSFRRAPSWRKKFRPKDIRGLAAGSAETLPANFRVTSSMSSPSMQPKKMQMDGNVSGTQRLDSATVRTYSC
UniProt O14638: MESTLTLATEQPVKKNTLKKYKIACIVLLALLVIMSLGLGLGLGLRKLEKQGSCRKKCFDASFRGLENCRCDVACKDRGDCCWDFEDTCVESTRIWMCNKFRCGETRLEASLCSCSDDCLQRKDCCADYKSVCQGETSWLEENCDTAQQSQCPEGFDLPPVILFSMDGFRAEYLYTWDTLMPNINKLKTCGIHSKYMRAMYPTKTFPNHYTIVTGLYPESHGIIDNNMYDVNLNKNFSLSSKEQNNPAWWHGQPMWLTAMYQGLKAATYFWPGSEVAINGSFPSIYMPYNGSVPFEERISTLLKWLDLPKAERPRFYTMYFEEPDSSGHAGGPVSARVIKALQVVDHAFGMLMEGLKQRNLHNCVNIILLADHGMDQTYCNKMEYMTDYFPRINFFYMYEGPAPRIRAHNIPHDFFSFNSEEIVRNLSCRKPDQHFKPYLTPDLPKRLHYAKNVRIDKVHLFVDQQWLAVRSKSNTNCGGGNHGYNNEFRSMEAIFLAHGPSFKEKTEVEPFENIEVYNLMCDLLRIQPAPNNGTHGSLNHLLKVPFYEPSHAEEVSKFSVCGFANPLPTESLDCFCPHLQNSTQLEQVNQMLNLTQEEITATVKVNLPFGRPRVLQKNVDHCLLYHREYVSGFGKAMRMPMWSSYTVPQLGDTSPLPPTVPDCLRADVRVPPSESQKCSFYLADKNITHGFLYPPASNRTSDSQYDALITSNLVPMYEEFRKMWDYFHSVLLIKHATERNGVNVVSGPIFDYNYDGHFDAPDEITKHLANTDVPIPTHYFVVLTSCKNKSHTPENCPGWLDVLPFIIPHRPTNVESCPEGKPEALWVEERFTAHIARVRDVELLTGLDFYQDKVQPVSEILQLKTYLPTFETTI
UniProt P29350: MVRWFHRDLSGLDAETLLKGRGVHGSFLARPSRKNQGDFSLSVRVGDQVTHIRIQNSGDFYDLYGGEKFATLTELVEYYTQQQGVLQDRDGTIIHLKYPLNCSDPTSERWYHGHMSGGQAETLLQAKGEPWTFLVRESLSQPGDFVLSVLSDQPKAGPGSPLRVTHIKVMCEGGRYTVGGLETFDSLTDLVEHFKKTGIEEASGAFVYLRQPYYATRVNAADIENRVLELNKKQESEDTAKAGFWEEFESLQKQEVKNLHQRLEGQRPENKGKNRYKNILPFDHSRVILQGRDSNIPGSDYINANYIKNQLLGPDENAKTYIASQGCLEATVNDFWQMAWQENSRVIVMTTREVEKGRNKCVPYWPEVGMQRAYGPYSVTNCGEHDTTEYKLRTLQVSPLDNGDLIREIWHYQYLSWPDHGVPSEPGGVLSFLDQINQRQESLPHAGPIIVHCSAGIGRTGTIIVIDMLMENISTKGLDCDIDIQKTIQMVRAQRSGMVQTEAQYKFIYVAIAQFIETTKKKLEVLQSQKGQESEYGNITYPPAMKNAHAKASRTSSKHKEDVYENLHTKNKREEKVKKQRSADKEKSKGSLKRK
UniProt O75145: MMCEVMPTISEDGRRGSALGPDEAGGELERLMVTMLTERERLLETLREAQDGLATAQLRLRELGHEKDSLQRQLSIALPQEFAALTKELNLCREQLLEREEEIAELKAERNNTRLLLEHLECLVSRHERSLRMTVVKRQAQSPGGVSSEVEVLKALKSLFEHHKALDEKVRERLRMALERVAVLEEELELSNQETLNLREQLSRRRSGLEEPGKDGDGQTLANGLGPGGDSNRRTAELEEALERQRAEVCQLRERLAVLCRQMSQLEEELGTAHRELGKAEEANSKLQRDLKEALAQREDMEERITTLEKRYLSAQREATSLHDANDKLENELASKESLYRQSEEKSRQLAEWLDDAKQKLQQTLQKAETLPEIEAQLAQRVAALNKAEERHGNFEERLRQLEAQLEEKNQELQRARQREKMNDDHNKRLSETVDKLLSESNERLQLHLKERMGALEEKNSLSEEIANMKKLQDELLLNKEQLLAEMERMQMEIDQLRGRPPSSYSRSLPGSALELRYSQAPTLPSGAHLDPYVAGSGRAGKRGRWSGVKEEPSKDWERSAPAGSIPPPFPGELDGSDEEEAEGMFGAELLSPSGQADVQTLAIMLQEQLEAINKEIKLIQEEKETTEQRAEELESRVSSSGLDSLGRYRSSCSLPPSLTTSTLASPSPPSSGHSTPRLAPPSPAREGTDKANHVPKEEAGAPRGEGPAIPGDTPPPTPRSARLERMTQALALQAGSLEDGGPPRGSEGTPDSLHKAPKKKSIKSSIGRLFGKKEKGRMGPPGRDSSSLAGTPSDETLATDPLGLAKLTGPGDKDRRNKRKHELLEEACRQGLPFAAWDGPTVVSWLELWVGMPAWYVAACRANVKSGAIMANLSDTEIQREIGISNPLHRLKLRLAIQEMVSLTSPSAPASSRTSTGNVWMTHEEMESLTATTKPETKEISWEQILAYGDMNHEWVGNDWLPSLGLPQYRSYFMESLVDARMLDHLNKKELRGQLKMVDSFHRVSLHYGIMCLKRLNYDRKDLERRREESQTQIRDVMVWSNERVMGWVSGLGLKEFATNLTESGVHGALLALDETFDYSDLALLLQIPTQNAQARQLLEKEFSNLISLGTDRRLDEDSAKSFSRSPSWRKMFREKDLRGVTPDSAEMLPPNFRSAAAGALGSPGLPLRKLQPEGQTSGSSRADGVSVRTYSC

First the molecules themselves.
T1: biotinylated CNKSR1 (wild-type) (human) (UniProt Q969H4)
T1 sequence (chain, biotinylated): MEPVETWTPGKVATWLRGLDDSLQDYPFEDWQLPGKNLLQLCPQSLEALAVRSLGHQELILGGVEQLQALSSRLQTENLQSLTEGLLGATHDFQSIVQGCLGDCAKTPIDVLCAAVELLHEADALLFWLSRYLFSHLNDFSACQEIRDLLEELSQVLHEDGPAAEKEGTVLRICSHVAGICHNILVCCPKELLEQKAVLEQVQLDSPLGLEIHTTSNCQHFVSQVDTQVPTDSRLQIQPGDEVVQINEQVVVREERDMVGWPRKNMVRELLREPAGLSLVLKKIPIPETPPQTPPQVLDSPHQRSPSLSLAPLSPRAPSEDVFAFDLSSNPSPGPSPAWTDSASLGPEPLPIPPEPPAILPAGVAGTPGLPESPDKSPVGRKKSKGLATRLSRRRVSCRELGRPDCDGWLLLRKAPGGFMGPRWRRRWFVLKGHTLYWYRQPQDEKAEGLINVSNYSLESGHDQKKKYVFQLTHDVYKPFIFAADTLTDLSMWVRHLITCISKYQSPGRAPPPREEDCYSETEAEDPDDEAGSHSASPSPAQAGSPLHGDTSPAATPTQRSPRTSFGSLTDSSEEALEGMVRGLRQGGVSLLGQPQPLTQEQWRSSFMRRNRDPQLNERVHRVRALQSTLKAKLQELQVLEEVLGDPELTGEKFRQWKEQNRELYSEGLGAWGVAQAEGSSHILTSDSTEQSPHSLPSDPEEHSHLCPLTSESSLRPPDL

B1: biotinylated PH domain of CNKSR1 (wild-type) (domain or fragment, UniProt Q969H4 403-502)
chain: RPDCDGWLLLRKAPGGFMGPRWRRRWFVLKGHTLYWYRQPQDEKAEGLINVSNYSLESGHDQKKKYVFQLTHDVYKPFIFAADTLTDLSMWVRHLITCIS
modifications: biotinylated
B2: biotinylated PH domain of CNKSR1, K414E/P416E/R423A/R425L/R426A/K478N (EEALAN) mutant (domain or fragment, UniProt Q969H4 403-502)
chain: RPDCDGWLLLREAEGGFMGPAWLARWFVLKGHTLYWYRQPQDEKAEGLINVSNYSLESGHDQKKKYVFQLTHDVYNPFIFAADTLTDLSMWVRHLITCIS
modifications: biotinylated
B3: biotinylated PH domain of CNKSR1, K414R (domain or fragment, UniProt Q969H4 403-502)
chain: RPDCDGWLLLRRAPGGFMGPRWRRRWFVLKGHTLYWYRQPQDEKAEGLINVSNYSLESGHDQKKKYVFQLTHDVYKPFIFAADTLTDLSMWVRHLITCIS
modifications: biotinylated
B4: biotinylated PH domain of CNKSR1, K414Q (domain or fragment, UniProt Q969H4 403-502)
chain: RPDCDGWLLLRQAPGGFMGPRWRRRWFVLKGHTLYWYRQPQDEKAEGLINVSNYSLESGHDQKKKYVFQLTHDVYKPFIFAADTLTDLSMWVRHLITCIS
modifications: biotinylated
B5: biotinylated PH domain of CNKSR1, W493A (domain or fragment, UniProt Q969H4 403-502)
chain: RPDCDGWLLLRKAPGGFMGPRWRRRWFVLKGHTLYWYRQPQDEKAEGLINVSNYSLESGHDQKKKYVFQLTHDVYKPFIFAADTLTDLSMAVRHLITCIS
modifications: biotinylated
B6: biotinylated CNKSR1 (W493A), full length (protein, UniProt Q969H4 1-720)
chain: MEPVETWTPGKVATWLRGLDDSLQDYPFEDWQLPGKNLLQLCPQSLEALAVRSLGHQELILGGVEQLQALSSRLQTENLQSLTEGLLGATHDFQSIVQGCLGDCAKTPIDVLCAAVELLHEADALLFWLSRYLFSHLNDFSACQEIRDLLEELSQVLHEDGPAAEKEGTVLRICSHVAGICHNILVCCPKELLEQKAVLEQVQLDSPLGLEIHTTSNCQHFVSQVDTQVPTDSRLQIQPGDEVVQINEQVVVREERDMVGWPRKNMVRELLREPAGLSLVLKKIPIPETPPQTPPQVLDSPHQRSPSLSLAPLSPRAPSEDVFAFDLSSNPSPGPSPAWTDSASLGPEPLPIPPEPPAILPAGVAGTPGLPESPDKSPVGRKKSKGLATRLSRRRVSCRELGRPDCDGWLLLRKAPGGFMGPRWRRRWFVLKGHTLYWYRQPQDEKAEGLINVSNYSLESGHDQKKKYVFQLTHDVYKPFIFAADTLTDLSMAVRHLITCISKYQSPGRAPPPREEDCYSETEAEDPDDEAGSHSASPSPAQAGSPLHGDTSPAATPTQRSPRTSFGSLTDSSEEALEGMVRGLRQGGVSLLGQPQPLTQEQWRSSFMRRNRDPQLNERVHRVRALQSTLKAKLQELQVLEEVLGDPELTGEKFRQWKEQNRELYSEGLGAWGVAQAEGSSHILTSDSTEQSPHSLPSDPEEHSHLCPLTSESSLRPPDL
modifications: biotinylated
B7: FLAG-GST-tagged G6PC3 of the human phosphatase array (protein, UniProt Q9BUM1 1-346)
chain: MESTLGAGIVIAEALQNQLAWLENVWLWITFLGDPKILFLFYFPAAYYASRRVGIAVLWISLITEWLNLIFKWFLFGDRPFWWVHESGYYSQAPAQVHQFPSSCETGPGSPSGHCMITGAALWPIMTALSSQVATRARSRWVRVMPSLAYCTFLLAVGLSRIFILAHFPHQVLAGLITGAVLGWLMTPRVPMERELSFYGLTALALMLGTSLIYWTLFTLGLDLSWSISLAFKWCERPEWIHVDSRPFASLSRDSGAALGLGIALHSPCYAQVRRAQLGNGQKIACLVLAMGLLGPLDWLGHPPQISLFYIFNFLKYTLWPCLVLALVPWAVHMFSAQEAPPIHSS
B8: FLAG-GST-tagged PTPN18 of the human phosphatase array (protein, UniProt Q99952 1-460)
chain: MSRSLDSARSFLERLEARGGREGAVLAGEFSDIQACSAAWKADGVCSTVAGSRPENVRKNRYKDVLPYDQTRVILSLLQEEGHSDYINGNFIRGVDGSLAYIATQGPLPHTLLDFWRLVWEFGVKVILMACREIENGRKRCERYWAQEQEPLQTGLFCITLIKEKWLNEDIMLRTLKVTFQKESRSVYQLQYMSWPDRGVPSSPDHMLAMVEEARRLQGSGPEPLCVHCSAGCGRTGVLCTVDYVRQLLLTQMIPPDFSLFDVVLKMRKQRPAAVQTEEQYRFLYHTVAQMFCSTLQNASPHYQNIKENCAPLYDDALFLRTPQALLAIPRPPGGVLRSISVPGSPGHAMADTYAVVQKRGAPAGAGSGTQTGTGTGTGARSAEEAPLYSKVTPRAQRPGAHAEDARGTLPGRVPADQSPAGSGAYEDVAGGAQTGGLGFNLRIGRPKGPRDPPAEWTRV
B9: FLAG-GST-tagged DUSP10 of the human phosphatase array (protein, UniProt Q9Y6W6 1-482)
chain: MPPSPLDDRVVVALSRPVRPQDLNLCLDSSYLGSANPGSNSHPPVIATTVVSLKAANLTYMPSSSGSARSLNCGCSSASCCTVATYDKDNQAQTQAIAAGTTTTAIGTSTTCPANQMVNNNENTGSLSPSSGVGSPVSGTPKQLASIKIIYPNDLAKKMTKCSKSHLPSQGPVIIDCRPFMEYNKSHIQGAVHINCADKISRRRLQQGKITVLDLISCREGKDSFKRIFSKEIIVYDENTNEPSRVMPSQPLHIVLESLKREGKEPLVLKGGLSSFKQNHENLCDNSLQLQECREVGGGASAASSLLPQPIPTTPDIENAELTPILPFLFLGNEQDAQDLDTMQRLNIGYVINVTTHLPLYHYEKGLFNYKRLPATDSNKQNLRQYFEEAFEFIEEAHQCGKGLLIHCQAGVSRSATIVIAYLMKHTRMTMTDAYKFVKGKRPIISPNLNFMGQLLEFEEDLNNGVTPRILTPKLMGVETVV
B10: FLAG-GST-tagged ILKAP of the human phosphatase array (protein, UniProt Q9H0C8 1-392)
chain: MDLFGDLPEPERSPRPAAGKEAQKGPLLFDDLPPASSTDSGSGGPLLFDDLPPASSGDSGSLATSISQMVKTEGKGAKRKTSEEEKNGSEELVEKKVCKASSVIFGLKGYVAERKGEREEMQDAHVILNDITEECRPPSSLITRVSYFAVFDGHGGIRASKFAAQNLHQNLIRKFPKGDVISVEKTVKRCLLDTFKHTDEEFLKQASSQKPAWKDGSTATCVLAVDNILYIANLGDSRAILCRYNEESQKHAALSLSKEHNPTQYEERMRIQKAGGNVRDGRVLGVLEVSRSIGDGQYKRCGVTSVPDIRRCQLTPNDRFILLACDGLFKVFTPEEAVNFILSCLEDEKIQTREGKSAADARYEAACNRLANKAVQRGSADNVTVMVVRIGH
B11: FLAG-GST-tagged PPP1R14C of the human phosphatase array (protein, UniProt Q8TAE6 1-165)
chain: MSVATGSSETAGGASGGGARVFFQSPRGGAGGSPGSSSGSGSSREDSAPVATAAAAGQVQQQQQRRHQQGKVTVKYDRKELRKRLVLEEWIVEQLGQLYGCEEEEMPEVEIDIDDLLDADSDEERASKLQEALVDCYKPTEEFIKELLSRIRGMRKLSPPQKKSV
B12: FLAG-GST-tagged DUSP7 of the human phosphatase array (protein, UniProt Q16829 1-419)
chain: MKNQLRGPPARAHMSTSGAAAAGGTRAGSEPGAGSGSGAGTGAGAATGAGAMPCKSAEWLQEELEARGGASLLLLDCRPHELFESSHIETAINLAIPGLMLRRLRKGNLPIRSIIPNHADKERFATRCKAATVLLYDEATAEWQPEPGAPASVLGLLLQKLRDDGCQAYYLQGGFNKFQTEYSEHCETNVDSSSSPSSSPPTSVLGLGGLRISSDCSDGESDRELPSSATESDGSPVPSSQPAFPVQILPYLYLGCAKDSTNLDVLGKYGIKYILNVTPNLPNAFEHGGEFTYKQIPISDHWSQNLSQFFPEAISFIDEARSKKCGVLVHCLAGISRSVTVTVAYLMQKMNLSLNDAYDFVKRKKSNISPNFNFMGQLLDFERTLGLSSPCDNHASSEQLYFSTPTNHNLFPLNTLEST

No constants are given. Whether binding was seen depends on the method and setting. Some results given as binding are weak or reduced against the parent protein; the word gives no strength. For part of these data: Tags and fused reporters may be left off the sequences shown.

One assay deals with FLAG-tagged RhoB (Q63L) (human) (UniProt P62745). Put plainly: AlphaScreen or HTRF; in vitro binding assay of a biotinylated and a FLAG-tagged protein, both synthesized by wheat germ extracts; 100 mM Tris-HCl pH 7.5, 0.01% Tween 20, 1 mg/ml BSA, anti-FLAG antibody, streptavidin donor and anti-IgG acceptor beads; room temperature, 1 h; threshold of interaction 10 times the signal with DHFR.
Consider B1, for which the binding entry is given as “binds”. With B2, the binding entry is “binds”. On to B3, for which the binding result is recorded as “binds”.

In the case of B4, the binding entry is given as “binds”.

On to B5, for which the binding entry is reported as “no binding”. For the molecule B6, the binding result was “no binding”.

The next assay addresses biotinylated RhoB (Q63L), constitutively active mutant (human) (UniProt P62745). Kind of assay: AlphaScreen or HTRF; high-throughput screen: biotin-tagged RhoB bait (WT, Q63L or T19N) with each FLAG-GST-tagged protein of the 4,212 human protein array; streptavidin donor beads, anti-DYKDDDDK antibody and protein A acceptor beads; 100 mM Tris-HCl pH 8.0, 0.01% Tween 20, 1 mg/ml BSA; 25°C, 1 h; wheat cell-free translation products.
As for “FLAG-GST-tagged RTKN (alias Rhotekin) of the 4,212 human protein array (from UniProt Q9BST9 1-563)”, the binding entry is “binds”.

In a further assay the target is T1, biotinylated CNKSR1 (wild-type) (human). Put plainly: AlphaScreen or HTRF; high-throughput screen: biotinylated CNKSR1 (WT, W493A) or RhoB (Q63L) bait with 171 FLAG-GST-tagged human phosphatases (154 full length, 17 catalytic domains); threshold 10 times the signal for CNKSR1-biotin/FLAG-DHFR; wheat cell-free translation products.
Take “FLAG-GST-tagged PPP1R8 of the human phosphatase array (from UniProt Q12972 1-351)”: the binding result is given as “binds”.

“FLAG-GST-tagged PPFIA1 of the human phosphatase array (from UniProt Q13136 1-1202)”: the binding entry was “binds”. For “FLAG-GST-tagged ENPP3 of the human phosphatase array (from UniProt O14638 1-875)”, the binding result is recorded as “binds”.

Take “FLAG-GST-tagged PTPN6 of the human phosphatase array (from UniProt P29350 1-595)”: the binding result was “binds”. Consider “FLAG-GST-tagged PPFIA3 of the human phosphatase array (from UniProt O75145 1-1194)”, for which the binding result was “binds”.

Take B7: the binding entry is reported as “binds”. With B8, the binding entry is on record as “binds”.

Consider B9, for which the binding entry is on record as “binds”. On to B10, for which the binding entry was “binds”. B11: the binding entry is reported as “binds”. On the same count and under the same terms, the entry for B12 is “binds”.
